This note sets out measurements from PubChem BioAssay AID1645882 (National Center for Advancing Translational Sciences (NCATS), 2021).

The campaign covered roughly 16,000 compounds. About 120 (0.75%) were called active. Roughly 4% stayed inconclusive and do not appear here. Calls follow the shape of the dose curve; as a rule, active = well fitted inhibition curve with a large enough effect; inconclusive = small, poorly fitted or top-dose-only effect; inactive = no such curve, though single readings can be large or run the other way. The list shows a part of the results.

UniProt O95398, sequence (O95398 whole entry, looked up): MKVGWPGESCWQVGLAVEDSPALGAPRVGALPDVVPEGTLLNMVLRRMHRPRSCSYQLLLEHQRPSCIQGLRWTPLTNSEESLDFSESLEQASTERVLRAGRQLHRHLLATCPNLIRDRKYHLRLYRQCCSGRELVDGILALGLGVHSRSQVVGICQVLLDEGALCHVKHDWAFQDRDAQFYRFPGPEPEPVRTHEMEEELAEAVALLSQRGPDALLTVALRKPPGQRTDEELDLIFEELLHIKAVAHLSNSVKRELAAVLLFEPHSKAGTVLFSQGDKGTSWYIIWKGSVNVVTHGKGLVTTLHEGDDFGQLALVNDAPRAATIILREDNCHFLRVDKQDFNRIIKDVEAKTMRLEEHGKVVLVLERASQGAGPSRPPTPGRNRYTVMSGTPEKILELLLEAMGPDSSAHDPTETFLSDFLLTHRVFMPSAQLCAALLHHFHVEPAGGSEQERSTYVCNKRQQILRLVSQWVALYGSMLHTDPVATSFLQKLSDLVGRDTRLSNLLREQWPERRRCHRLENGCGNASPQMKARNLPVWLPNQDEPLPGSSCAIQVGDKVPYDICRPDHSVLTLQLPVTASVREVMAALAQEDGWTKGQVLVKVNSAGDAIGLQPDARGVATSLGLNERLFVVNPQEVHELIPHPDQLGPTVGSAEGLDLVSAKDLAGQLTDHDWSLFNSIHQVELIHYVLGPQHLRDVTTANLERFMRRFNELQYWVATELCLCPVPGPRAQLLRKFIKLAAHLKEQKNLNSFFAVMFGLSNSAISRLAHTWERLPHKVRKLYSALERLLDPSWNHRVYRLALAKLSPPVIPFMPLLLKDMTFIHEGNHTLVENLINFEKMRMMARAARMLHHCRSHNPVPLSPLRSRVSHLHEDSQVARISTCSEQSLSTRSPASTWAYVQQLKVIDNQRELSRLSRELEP

The target in the test is Rap guanine nucleotide exchange factor 3 (Homo sapiens) (UniProt O95398). As to the kind of experiment: Validation qHTS for antagonist of cAMP-regulated guanine nucleotide exchange factor 3 (EPAC1).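 Also: plate controls were DMSO for no effect and ATA control for full effect; nearly all actives have a fitted effect of over 75% in size.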 The following applies: EPAC1 Rap1B-BODIPY-GDP exchange, fluorescence; series mostly up to 150 µM; activity change, negative = inhibition: at the top concentration. The method, boiled down:
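EPAC1 (100 nM) mixed with 250 nM RAP1B-BODIPY-GDP and 50 uM GDP; compounds in concentration series, 5 min at room temperature. Fluorescence (ex 480/em 540 nm) read every 5 min for 30 min; normalized to ATA control and DMSO.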
(In general: Quantitative high-throughput screening tests each substance at several concentrations.)
Turning to `NCCCP(=O)(O)O`, the “activity change, negative = inhibition” value is inactive: -0.712% [at 75.8 µM]. Turning to `CCC1(CC)C(=O)C=CNC1=O`, the “activity change, negative = inhibition” value is inactive: 14.7%. The figure for `C=C(C)C1CNC(C(=O)O)C1CC(=O)O` (configuration not stated) is inactive: 8.1%; for `O=C(N/N=C/c1ccc([N+](=O)[O-])o1)c1cc([N+](=O)[O-])cc([N+](=O)[O-])c1O` it is inactive: -16.1%; for `C[C@]12CC[C@H]3[C@@H](CC[C@@]45O[C@@H]4C(O)=C(C#N)C[C@]35C)[C@@H]1CC[C@@H]2O` it is inactive: 26.9%. As to `C[C@@]12CC(c3ccoc3)OC(=O)C1CC[C@@]1(C)C2C2C=C[C@@]1(O)C(=O)O2` (some centres not stated), the “activity change, negative = inhibition” value is inactive: 6.33%. Under `COC1=C[C@H]2[C@H]3Cc4ccc(OC)c(O)c4[C@@]2(CCN3C)CC1=O` stands inactive: -8.75%. Take `O=C(Oc1ccccc1)N1CCC2(CCCN(C(c3ccccc3)c3ccccc3)C2)CC1`: the “activity change, negative = inhibition” value is inactive: 5.57%. In the case of `O=C1CSC(c2ccccc2Cl)c2cc(Cl)ccc2N1` (configuration not stated), the “activity change, negative = inhibition” value was inactive: -3.6% [at 201 µM]. As for `NNC(=O)c1ccc(O)cc1`, the “activity change, negative = inhibition” value was inactive: 4.51% [at 75.8 µM]. Under `COC(=O)[C@@H](N)CCCN=C(N)N[N+](=O)[O-]` stands “inactive”; under `CN1CCN=C(c2ccccc2)c2cc(Cl)ccc21`, inactive: 22.7%; under `C[C@]1(O)CC[C@H]2[C@@H]3CCC4=CC(=O)CC[C@]4(C)[C@@]3(F)[C@@H](O)C[C@@]21C`, inactive: 20.7%. The figure for `CCCC[C@H]1C(=O)O[C@H](C)[C@H](NC(=O)c2cccc(NC=O)c2OC)C(=O)O[C@@H](C)[C@@H]1OC(=O)CC(C)C` is inactive: -5.92%.

In the case of `CC(C)(C)NCC(O)c1cc(Cl)c(N)c(Cl)c1` (configuration not stated), the activity change, negative = inhibition entry was “inactive”. On to `CC(C)[C@@]1(NC(=O)[C@H]2CC3c4cccc5[nH]cc(c45)C[C@H]3N(C)C2)O[C@@]2(O)C3CCCN3C(=O)[C@@H](Cc3ccccc3)N2C1=O` (some centres not stated), for which the “activity change, negative = inhibition” value was inactive: -1.38%. Turning to `CC[C@]1(C2=NCCN2)Cc2ccccc2O1`, the “activity change, negative = inhibition” value was inactive: 7.54%. On to `Fc1ccc(C(OCCN2CCN(CCCc3ccccc3)CC2)c2ccc(F)cc2)cc1`, for which the activity change, negative = inhibition entry was “inactive”.

With `N[C@@H](CCl)C(=O)O`, the “activity change, negative = inhibition” value is inactive: 5.05% [at 75.8 µM]. As to `COc1cc2c(cc1OC)[C@@]13CCN4CC5=CCO[C@H]6CC(=O)N2[C@H]1[C@H]6[C@H]5C[C@H]43`, the “activity change, negative = inhibition” value is inactive: 23.7%. For the compound `CCOCN(C(=O)CCl)c1c(C)cccc1CC`, the “activity change, negative = inhibition” value was inactive: 14.4%.

Regarding `C=C1[C@@H](C)[C@H]2[C@H](Cc3ccccc3)NC(=O)[C@]23[C@H](OC(C)=O)/C=C/[C@](C)(O)C(=O)[C@@H](C)C/C=C/[C@H]3[C@@H]1O`, the “activity change, negative = inhibition” value is inactive: 23%. As for `CC(CN)CC(=O)O` (configuration not stated), the “activity change, negative = inhibition” value was inactive: 26.5%. For the compound `C=C(C)[C@H]1Cc2c(ccc3c2O[C@@H]2COc4cc(OC)c(OC)cc4[C@@H]2C3=O)O1`, the activity change, negative = inhibition result was “inactive”. Turning to `COC(=O)C1=CCCN(C)C1`, the activity change, negative = inhibition result was “inactive”. Regarding `C=C(C)CN1CC[C@@]23c4c5ccc(O)c4O[C@H]2c2[nH]c4ccccc4c2C[C@]3(O)[C@@H]1C5`, the “activity change, negative = inhibition” value is inactive: -11.4%. Turning to `NCC(CC(=O)O)c1ccc(Cl)s1` (configuration not stated), the “activity change, negative = inhibition” value is inactive: 14.7%. The entry for `O=c1ccc2cc(O[C@H]3OC(CO)C(O)C(O)C3O)c(O)cc2o1` (some centres not stated) is “inactive”; for `O=C1/C(=C\c2ccccc2)C[C@@]2(O)[C@H]3Cc4ccc(O)c5c4[C@@]2(CCN3CC2CC2)[C@H]1O5` it is inactive: 12.8%. As for `O=C(/C=C/c1ccc(Cl)cc1)N[C@@]12CCC(=O)[C@@H]3Oc4c(O)ccc5c4[C@@]31CCN(CC1CC1)C2C5`, the “activity change, negative = inhibition” value is inactive: 33.9%. Consider `c1cc2cc(c1)C[n+]1ccc(c3ccccc31)NCc1ccc(cc1)CNc1cc[n+](c3ccccc13)C2`, for which the “activity change, negative = inhibition” value was inactive: 1.4%. The figure for `NC1=NC(=O)N2CC12` (configuration not stated) is inactive: -6.51%. The entry for `CC(C)(c1ccc(OCC2CO2)cc1)c1ccc(OCC2CO2)cc1` (configuration not stated) is “inactive”. The figure for `c1ccc(N2CCN(c3ccccc3)CC2)cc1` is inactive: -18.6%; for `O=C(NC(=O)c1c(F)cccc1F)Nc1cc(Cl)c(OC(F)(F)C(F)C(F)(F)F)cc1Cl` (configuration not stated) it is “inactive”. With `NC[C@@H](CC(=O)O)c1ccc(Cl)cc1`, the “activity change, negative = inhibition” value is inactive: 9.47%. For `CCOC(=O)c1cc2c(cn1)[nH]c1ccccc12`, the activity change, negative = inhibition entry was “inactive”.

Turning to `CNCC(=O)c1ccc(O)c(O)c1`, the “activity change, negative = inhibition” value was inactive: 4.7%. As for `C[C@]12CC[C@H]3[C@@H](CCC4=C(Cl)C(=O)CC[C@@]43C)[C@@H]1CC[C@@H]2O`, the “activity change, negative = inhibition” value was inactive: 6.78%. For `CC1=C2C3OC(=O)[C@H](C)[C@H]3CC[C@@]2(C)C=CC1=O` (some centres not stated), the “activity change, negative = inhibition” value is inactive: 10.3%. Regarding H-YPFVEPI-OH, the activity change, negative = inhibition was inactive: 26.3% [at 15.3 µM].

On to `CC(C)CN1CC[C@@]2(CCCN(C(=O)Oc3ccccc3)C2)C1`, for which the “activity change, negative = inhibition” value was inactive: 13.3%. Turning to `NNC(N)=O`, the “activity change, negative = inhibition” value is inactive: -9.96% [at 75.8 µM].

As to `ClC1=C(Cl)[C@]2(Cl)[C@@H]3[C@H]4C[C@H]([C@@H]5O[C@H]45)[C@@H]3[C@@]1(Cl)C2(Cl)Cl`, the “activity change, negative = inhibition” value is inactive: 9.22%.

With `CC1(C)N(O)C(c2ccc(C(=O)O)cc2)=[N+]([O-])C1(C)C`, the “activity change, negative = inhibition” value was inactive: 16.1%.

Take `C[C@@H](Cc1ccccc1)NCCC(c1ccccc1)c1ccccc1`: the “activity change, negative = inhibition” value is inactive: 14.7% [at 75.8 µM]. The figure for `OCC(O)Cc1ccc2c(c1)OCO2` (configuration not stated) is inactive: 20.6%; for `CC1=C2[C@H]3OC(=O)[C@@H](C)[C@@H]3CC[C@@]2(C)C=CC1=O` it is inactive: 11.7%; for `COP(=S)(OC)SCN1C(=O)c2ccccc2C1=O` it is inactive: 20.4%. `CCCN(CCC)C1CCc2ccc(O)cc2C1` (configuration not stated): the activity change, negative = inhibition entry is “inactive”. Turning to `O=[N+]([O-])c1c2ccccc2cc2ccccc12`, the “activity change, negative = inhibition” value was inactive: 32.4% [at 320 µM]. As to `CCC(C)C(=O)OC1C(O)C2C(CN3CC(C)CCC3[C@]2(C)O)C2C[C@]34O[C@@]5(O)C(OC(=O)C(C)(O)CC)CCC3(C)C5C(OC(C)=O)C(OC(C)=O)C4[C@@]21O` (some centres not stated), the “activity change, negative = inhibition” value was inactive: 11.4%.
